# PubChem BioAssay AID902 (National Center for Advancing Translational Sciences (NCATS), 2007)
# Hit rate of the full screen: of about 130,000 compounds, about 1,900 (1.5%) were called active. Inconclusive means that the source gave no clear call. Such entries were picked first, then a sample of the others. Calls come from the whole dose curve; as a rule, active = well fitted cell-killing curve with a large enough effect; inconclusive = small, poorly fitted or top-dose-only effect; inactive = no such curve, though single readings can be large or run the other way. Potencies beside an inconclusive call are fits to weak or partial responses and may not hold up.
# Test: qHTS Screen for Compounds that Selectively Target Cancer Cells with p53 Mutations: Cytotoxicity of p53ts Cells at the Nonpermissive Temperature; note: nearly all actives have a fitted effect of over 55% in size
# Details: H1299-p53A138V viability at 39C, ATP luminescence, 24 h; activity change, negative = cell killing: at 46.1 µM (top of the series)
# % is set by controls: 0 for no effect and ±100 for the full control effect; potency is the fitted concentration of half-maximal effect; tags give direction and shape of the fitted curve.
Structure (SMILES),Potency,"activity change, negative = cell killing"
Nc1ccc2nc(-c3ccc(N)c(Cl)c3)[nH]c2c1,"inconclusive: 11.2 µM [cytotoxic, partial curve]",
CCCCN(CCCC)CCCNC(=O)c1cc(-c2ccc(Cl)s2)nc2ccccc12,"inconclusive: 6.31 µM [cytotoxic, partial curve]",
Cn1ccc2cc(S(=O)(=O)N3CCCC(C(=O)NCc4ccccc4F)C3)ccc21 (stereo not drawn),"inconclusive: 2.51 µM [cytotoxic, full curve, poor fit]",
CCCCC(NS(=O)(=O)c1ccc(OC)cc1)C(=O)O (stereo not drawn),"inconclusive: 12.6 µM [cytotoxic, single point]",
COc1ccccc1N1CCN(C(=O)c2nn(C)c3c2CS(=O)(=O)c2ccccc2-3)CC1,"inconclusive: 31.6 µM [cytotoxic, single point]",
Cc1nnc(NC(=O)c2ccc(S(=O)(=O)N3CCCCCC3)cc2)o1,"inconclusive: 12.6 µM [cytotoxic, partial curve]",
FC(F)(F)c1cccc(Nc2nc3nonc3nc2Nc2ccc(Cl)cc2)c1,active: 15.8 µM,
Cc1nc(-c2ccc(S(=O)(=O)N3CCN(c4ccccc4F)CC3)cc2)co1,"inconclusive: 0.1 µM [cytotoxic, partial curve, poor fit]",
O=C(CCCCCn1c(=O)[nH]c2ccccc2c1=O)N1CCN(c2cccc(C(F)(F)F)c2)CC1,"inconclusive: 12.6 µM [cytotoxic, partial curve, poor fit]",
Cc1cc(C)c2c(NC(=O)c3ccccc3Cl)c(C(=O)NCc3ccc(Cl)cc3)sc2n1,active: 2.51 µM,
COc1ccc(-c2coc3cc(O)cc(O)c3c2=O)cc1,"inconclusive: 10 µM [cytotoxic, partial curve]",
O=C(NCCCN1CCN(c2ccc(F)cc2)CC1)Nc1ccccc1Cl,"inconclusive: 31.6 µM [cytotoxic, single point]",
Cc1ccccc1NS(=O)(=O)c1ccc2[nH]cc(C(=O)NC3CCCCC3)c(=O)c2c1,"inconclusive: 2.51 µM [cytotoxic, full curve, poor fit]",
Cc1ccc(NC(=O)c2oc3ccc(S(=O)(=O)N4CCCCCC4)cc3c2C)c(C)c1,"inconclusive: 0.631 µM [cytotoxic, full curve, poor fit]",
COc1cccc(NC(=O)N(Cc2c[nH]c3ccccc23)C2CCCCCC2)c1,"inconclusive: 10 µM [cytotoxic, single point]",
CCOc1ccc(-n2c(SCC(=O)Nc3cc(C)on3)nc3c([nH]c4ccccc43)c2=O)cc1,inactive,
Cc1cc(C)n(-c2ccc3cccc(NS(C)(=O)=O)c3n2)n1,"inconclusive: 2 µM [cytotoxic, full curve]",
CCc1cccc2nc3c(c([Si](CC)(CC)CC)c12)Cn1c-3cccc1=O,"inconclusive: 31.6 µM [cytotoxic, single point]",
O=C(NCc1ccc2c(c1)OCO2)c1ccccn1,inactive,
COc1cc(C2c3c(oc4ccccc4c3=O)C(=O)N2c2ccc(C)cn2)ccc1O (stereo not drawn),inactive,
N#C/C(=C(/O)COC(=O)COc1ccc(Cl)cc1)c1nc2ccccc2[nH]1,active: 20 µM,
CCOC(=O)c1c(C)c(-c2ccccc2)n(CC(=O)Nc2ccc(OCC)cc2)c1C,"inconclusive: 7.94 µM [cytotoxic, partial curve]",

Structure (SMILES),Potency,"activity change, negative = cell killing"
Cc1ccc(-c2ccc(=O)n(CC(=O)NCCc3ccc(Cl)cc3)n2)cc1,inactive,
CCCn1c(-c2ccc(F)cc2)nc2c(N3CCN(Cc4nc(OC)cc(OC)n4)CC3)nc(C)nc21,inactive,
c1ccc(-c2csc3ncn4cnnc4c23)cc1,inactive,
O=C(c1ccccc1)c1cn(Cc2ccc(F)cc2)c2ccccc2c1=O,"inconclusive: 12.6 µM [cytotoxic, single point]",
CCN(CC)CCCC(C)n1c(-c2ccccc2)nc2c(NC3CCCCC3)nc(C)nc21 (stereo not drawn),"inconclusive: 31.6 µM [cytotoxic, single point]",
Cc1cc(NC(=O)CCS(=O)(=O)c2nc(-c3ccccc3)cc(C(F)(F)F)n2)no1,"inconclusive: 31.6 µM [cytotoxic, single point]",
O=C(Nc1cccc2ncccc12)c1cc2ccccc2o1,inactive,
CCOC(=O)C1CCCN(c2c(C(=O)c3ccc(OCC)cc3)cnc3ccccc23)C1 (stereo not drawn),"inconclusive: 25.1 µM [cytotoxic, single point]",
CN1/C(=C\C(=O)c2cccs2)Sc2ccccc21,active: 10 µM,
CC(=O)OC[C@@H]1O[C@@H](O/N=C2/C[C@@H](O)[C@@H](O)[C@@H]3[C@@H]4C(=O)N(c5cccc(Oc6ccccc6)c5)C(=O)[C@H]4CC[C@@H]23)[C@H](OC(C)=O)[C@H](OC(C)=O)[C@@H]1OC(C)=O,,inactive: 16.8% [at 9.22 µM]
COc1cccc(-c2cc(N(C)Cc3ccco3)ncn2)c1,active: 12.6 µM,
Cc1cccc(-n2ncc3c(N4CCCC4)ncnc32)c1,active: 5.01 µM,
CCOC(=O)Cc1ccc(NC(=O)Nc2cc3c(cc2N2CCCCC2)n(C)c(=O)n3C)cc1,"inconclusive: 0.794 µM [cytotoxic, partial curve]",
O=C1C=C(NCCO)C(=O)c2cnccc21,active: 3.98 µM,
CCOc1ccc(-c2cc(C(=O)NCCCN3CCN(CC)CC3)c3ccccc3n2)cc1,active: 12.6 µM,
COc1ccc(-n2cc(C(=O)Nc3cc(F)ccc3F)c3ccccc3c2=O)cc1,"inconclusive: 3.16 µM [cytotoxic, single point]",
CCOc1ccc(CNC(=O)Cn2ccc3cc(S(=O)(=O)N4CCCCCC4)ccc32)cc1,"inconclusive: 0.316 µM [cytotoxic, full curve]",
Cc1ccc2c(c1)N(CCC(=O)NCCCOC(C)C)C(=O)C(C)O2 (stereo not drawn),inactive,
CCCc1cc2c(c(=O)o1)C(O)C1OC1C2=O (stereo not drawn),,inactive: 4.27% [at 9.22 µM]
O=C(Cn1cnc2onc(-c3ccc(F)cc3)c2c1=O)Nc1cccc(C(F)(F)F)c1,"inconclusive: 15.8 µM [cytotoxic, single point]",
Cc1ccccc1NC(=O)Cn1c(=O)n(Cc2ccc3c(c2)OCO3)c(=O)c2ccc(C(=O)NC3CCCCC3)cc21,"inconclusive: 3.16 µM [cytotoxic, full curve]",
